The other results are listed elsewhere or left out. The main result of the screen is listed elsewhere. These columns were measured beside it and carry no call. The list favours compounds with an active or inconclusive main result. Words in brackets tell the shape of the fitted curve; partial curves, single points and poor fits give uncertain potencies.
Test: Natriuretic polypeptide receptor (hNpr1) antagonism - Confirmation; note: nearly all actives have a fitted effect of over 70% in size
Conditions: HEK293 hNpr1 cGMP GloSensor luminescence, ANP-stimulated; measured here: HEK-hNpr1 cytotoxicity, CellTiter-Glo
Outline: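 HEK293 cells co-expressing hNpr1 and GloSensor cGMP sensor preloaded 2 h with 2% GloSensor reagent, compounds added 30 min at room temperature, then 0.1 nM hNppA for 20 min; luminescence read before and after agonist. Cytotoxicity counter-screen run.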
Tags give direction and shape of the fitted curve.

| SMILES | CC50 |
| --- | --- |
| Cc1cccc(CC(=O)N2CCCN(c3cc(-c4ccc(Br)cc4)[nH]n3)CC2)c1 | 43.2 µM [falling, single point] |
| CCOc1ccc(CN2CCN(c3nc4ccccc4o3)CC2CCO)cc1 (stereo not given) | 24.3 µM [falling, partial curve] |
| COc1ccc(-c2noc(CC3CCN(C(=O)Cc4cccc(C)c4)CC3)n2)cc1 | 19.3 µM [falling, partial curve] |
| O=C(c1ccnc2ccccc12)N1CCC2(CC1)Nc1ccccc1NC2=O | 34.3 µM [falling, single point] |
| CCOc1ccc(C(=O)N2CCC(Cc3nc(-c4ccc(OC)cc4)no3)CC2)cc1OCC | 9.68 µM [falling, partial curve] |
| Cc1ccccc1CC(=O)N1CCC2(CC1)NC(=O)N(c1ccc(F)cc1)N2 | 24.3 µM [falling, partial curve] |
| COc1ccc2ccc(OCc3nc(C(=O)N4CCCC(C(N)=O)C4)co3)cc2c1 (stereo not given) | 19.3 µM [falling, partial curve] |
| Cc1nn2c(c1-c1ccccc1Oc1ccccc1)N(Cc1cccc(C#N)c1)CCC2 | 70.3 µM [falling, single point] |
| COc1ccc(C2Cn3nnc(C(=O)N4CCN(C(=O)c5cccc(C)c5)CC4)c3CO2)cc1 (stereo not given) | 19.3 µM [falling, partial curve] |
| O=C(CN1CCCc2nc(-c3ccncc3)ncc2C1=O)N1CCc2ccccc2C1 | 13.7 µM [falling, partial curve] |
| O=C(NC1CCN(Cc2ccccc2)CC1)c1cc2n(n1)CC(c1ccc3c(c1)OCO3)OC2 (stereo not given) | 17.2 µM [falling, partial curve] |
| Cc1cc(NC(=O)Cc2c[nH]c3ncc(-c4ccccc4C)cc23)n(C)n1 | 35.3 µM [falling, partial curve] |
| Cn1nccc1C(=O)N1CCC2(CC1)OCCN(Cc1ccccc1F)C2=O | 35.3 µM [falling, partial curve] |
| Cc1ccc(C(=O)N2CCC3(CC2)N=C(c2ccc(Br)cc2)NO3)cc1 | 43.2 µM [falling, single point] |
| CC(C)c1ccc(CC(=O)N2CCCc3ncc(C(=O)Nc4ccccn4)cc32)cc1 | 28 µM [falling, partial curve] |
| CC(C)Oc1ccc(CN2C[C@@H](CO)[C@H](c3ccncc3)C2)cc1 | 27.3 µM [falling, partial curve] |
| CC(=O)c1c(C)nn(CC(=O)N2CCn3nc(Cc4ccccc4)cc3C2)c1C | 19.3 µM [falling, partial curve] |
| COc1ccc(-c2noc(CC3CCN(C(=O)CCCc4ccccc4)CC3)n2)cc1 | 30.6 µM [falling, single point] |
| O=C(c1ccc(F)cc1Cl)N1CCC(n2cc(-c3nc(-c4ccccc4)no3)nn2)C1 (stereo not given) | 9.68 µM [falling, partial curve] |
| Cn1c(CNC(=O)c2ccc3nccn3c2)nc2cc(C(F)(F)F)ccc21 | 30.6 µM [falling, single point] |

| SMILES | CC50 |
| --- | --- |
| CC(C)c1noc(-c2cn(C3CCN(C(=O)c4cccc(Cl)c4)C3)nn2)n1 (stereo not given) | 24.3 µM [falling, partial curve] |
| COc1ccc(C(=O)N2CCC3(CC2)NC(=O)N(Cc2ccc(F)cc2)C3=O)cc1F | 21.7 µM [falling, partial curve] |
| CSc1cccc(NC(=O)Cn2c(N3CCC(C)CC3)nc(C)cc2=O)c1 | 17.2 µM [falling, partial curve] |
| CCc1ncc2c(=O)n(Cc3ccc(OC)cc3)ccn12 | 9.68 µM [falling, partial curve] |
| O=C(Cc1c[nH]c2ncc(-c3ccccc3)cc12)N1CCCC1 | 31.4 µM [falling, partial curve, poor fit] |
| O=C(NCCOc1ccccc1)c1cnc2n1CCN(Cc1c[nH]c3ccccc13)CC2 | 31.4 µM [falling, partial curve] |
| Cc1ccc2c(c1)nc1n2[C@@H](CNCc2ccccc2)COC1 | 35.3 µM [falling, partial curve] |
| CC(=O)c1cccc(NC(=O)O[C@@H]2CO[C@H]3[C@@H]2OC[C@@H]3NC(=S)NC2CCCCC2)c1 | 27.3 µM [falling, single point] |
| O=C(Nc1ccc(-c2cccc(F)c2)cc1)C1CCCN(C(=O)c2ccncc2)C1 (stereo not given) | 17.2 µM [falling, partial curve] |
| O=C(c1ccccc1)N1CCc2sc(C(=O)N3CCN(c4ccc(F)cc4)CC3)cc2C1 | 17.2 µM [falling, partial curve] |
| COc1ccc(OC)c(CNC(=O)c2cccc3c2CCN3C(=O)c2ccc(F)cc2)c1 | 24.3 µM [falling, partial curve] |
| CCN(CC)C(=O)c1cc2c(s1)CCC(C(=O)Nc1ccc(OC)c(F)c1)C2 (stereo not given) | 21.7 µM [falling, partial curve] |
| CC(=O)c1cccc(NC(=O)O[C@@H]2CO[C@H]3[C@@H]2OC[C@@H]3NC(=S)Nc2cccc3ccccc23)c1 | 19.3 µM [falling, partial curve] |
| CC(C)c1ccc(CC(=O)N2CCCc3ncc(C(=O)Nc4cccc(Cl)c4)cc32)cc1 | 15.3 µM [falling, partial curve] |
| Cn1nccc1C(=O)N1CCCN(CCc2ccccc2)c2ccccc21 | 21.7 µM [falling, partial curve] |
| COc1ccc(C2Cn3nnc(C(=O)N4CCN(C(=O)Cc5ccccc5Cl)CC4)c3CO2)cc1 (stereo not given) | 19.3 µM [falling, partial curve] |
| C[S+](=O)([O-])CCn1ncc2cc(OCC3CCN(c4ncc(F)cn4)CC3)ccc21 | 9.94 µM [falling, full curve] |
| C1CCC(COCCc2noc(C3CNC3)n2)C1 | 6.11 µM [rising, partial curve, poor fit] |
| CC1(NC(=O)C2CC2)CN(c2ccc(Oc3ccccc3)cc2)C1 | 28 µM [falling, partial curve] |
| O=C(c1ccccc1)N1CCNc2cnc(Nc3cccc(C(F)(F)F)c3)nc2C1 | 31.4 µM [falling, partial curve] |

From PubChem BioAssay AID1347044 (National Center for Advancing Translational Sciences (NCATS), 2019)
